Assay results taken from the supplement of paper PMC4604168 (melanoma cell lines).
The other results are listed elsewhere or left out. Single values are uncertain, as repeats are few or missing.

Each molecule was assayed on COLO800 (assay: cell count relative to DMSO control; melanoma cells; higher = more viable cells). Conditions: library dose: low library concentration; 72 h.
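Also: cell number obtained by counting DAPI-stained nuclei in high-throughput microscope images with image analysis software, screen run in 1,536-well plates.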

Row | Structure (SMILES) | cell count
1 | Nc1ccn([C@@H]2O[C@H](CO)[C@@H](O)C2(F)F)c(=O)n1 [gemcitabine] + O=c1cc(-c2cccc3c2Sc2ccccc2S3)oc(N2CCOCC2)c1 [KU55933] (first compound 0.0004 µM, partner dose 1 µM) | 95.4%
2 | Nc1nc(F)nc2c1ncn2[C@@H]1O[C@H](CO)[C@@H](O)[C@@H]1O [fludarabine] + Oc1cc(-c2nc(-c3ccccc3)[nH]c2-c2ccncc2)ccc1Cl [L779450] (first compound 0.2 µM, partner dose 0.2 µM) | 86.8%
3 | Nc1ccn([C@@H]2O[C@H](CO)[C@@H](O)C2(F)F)c(=O)n1 [gemcitabine] + CCN(CC)CCCCNc1ncc2cc(-c3cc(OC)cc(OC)c3)c(NC(=O)NC(C)(C)C)nc2n1 [PD173074] (first compound 0.0004 µM, partner dose 0.1 µM) | 66.4%
4 | CC(=O)O[C@@]12CO[C@@H]1C[C@H](O)[C@@]1(C)C(=O)[C@H](O)C3=C(C)[C@@H](OC(=O)[C@H](O)[C@@H](NC(=O)OC(C)(C)C)c4ccccc4)C[C@@](O)([C@@H](OC(=O)c4ccccc4)[C@H]21)C3(C)C [Docetaxel] + CCCCCCCCCCCC1=C(O)C(=O)C=C(O)C1=O [Embelin] (first compound 0.0001 µM, partner dose 1.2 µM) | 32.3%
5 | Nc1nc(F)nc2c1ncn2[C@@H]1O[C@H](CO)[C@@H](O)[C@@H]1O [fludarabine] + O=c1cc(-c2cccc3c2Sc2ccccc2S3)oc(N2CCOCC2)c1 [KU55933] (first compound 0.2 µM, partner dose 1 µM) | 116%
